Measurements published in PubChem BioAssay AID488969 (Vanderbilt High Throughput Screening Facility, 2010).
In all, about 110,000 compounds were measured (“z-score”: median about -0.1, highest 2% from about 2 on). This is one part of the list. Calls of active or inactive are those of the source.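 Rule for the calls: active = z-score in the third read window above 3 or below -3; inactive = the rest.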

Target: Metabotropic glutamate receptor 8 (Rattus norvegicus) (UniProt P70579)
Assay: rat mGluR8 modulators via GIRK flux, primary screen, cell-based, thallium flux, HTS (AID 488969)
Conditions: HEK293 rat mGluR8, GIRK (G protein-gated inwardly rectifying potassium channel) thallium flux, FluoZin2; at 10 µM; stronger effect = higher value; submaximal glutamate (EC20) added with thallium

Chain of UniProt P70579 (P70579 whole entry, looked up): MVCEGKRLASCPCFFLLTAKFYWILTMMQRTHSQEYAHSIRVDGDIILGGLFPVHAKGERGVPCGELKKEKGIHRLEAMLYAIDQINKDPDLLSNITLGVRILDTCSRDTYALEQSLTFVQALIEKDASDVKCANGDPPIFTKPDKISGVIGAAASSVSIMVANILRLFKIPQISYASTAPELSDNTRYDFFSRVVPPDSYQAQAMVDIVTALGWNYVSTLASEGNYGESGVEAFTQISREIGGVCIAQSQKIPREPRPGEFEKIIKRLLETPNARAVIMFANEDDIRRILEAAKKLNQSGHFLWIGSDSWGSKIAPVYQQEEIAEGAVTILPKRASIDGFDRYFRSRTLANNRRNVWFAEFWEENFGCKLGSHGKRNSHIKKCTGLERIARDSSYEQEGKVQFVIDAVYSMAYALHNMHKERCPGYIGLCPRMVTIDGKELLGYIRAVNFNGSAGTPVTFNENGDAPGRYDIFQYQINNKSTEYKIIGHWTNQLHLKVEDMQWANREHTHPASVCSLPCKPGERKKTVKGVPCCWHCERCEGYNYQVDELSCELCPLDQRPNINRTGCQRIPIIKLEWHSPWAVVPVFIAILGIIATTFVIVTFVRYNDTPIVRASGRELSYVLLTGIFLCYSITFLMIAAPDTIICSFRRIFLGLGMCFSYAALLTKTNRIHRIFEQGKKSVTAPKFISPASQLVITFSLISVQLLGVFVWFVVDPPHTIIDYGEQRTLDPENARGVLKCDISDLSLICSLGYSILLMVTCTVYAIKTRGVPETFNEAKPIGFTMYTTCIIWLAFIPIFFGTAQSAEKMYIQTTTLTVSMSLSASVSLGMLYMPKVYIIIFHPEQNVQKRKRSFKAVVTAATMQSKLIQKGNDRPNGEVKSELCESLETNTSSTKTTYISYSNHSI

SMILES	z-score
COc1ccc(C(=O)N2CCN(C(=O)c3ccco3)CC2)cc1OC	0.587
CCOC(=O)N1CCN(C(=O)CSCC(=O)Nc2nc(-c3cccs3)cs2)CC1	-0.51
O=c1nc2sc3ccccc3n2c(=O)n1-c1cccc(Cl)c1	-0.296
CC(=O)C1C(c2ccncc2)NC(=O)NC1(O)C(F)(F)F (stereo not given)	0.609
O=[N+]([O-])c1ccc(N=Cc2sc3ccccc3c2O)cc1	-0.479
Cc1ccccc1-c1nc(-c2ccc(NC(=O)c3ccc(Br)o3)cc2)no1	0.0114
CCCC(=O)N(CCc1ccc(OC)cc1)Cc1nc2ccccc2c(=O)[nH]1	1.57
O=C1C(c2ccncc2)N(CCC2=CCCCC2)C(=O)CN1C1CCCCC1 (stereo not given)	0.392
O=C(NCc1cccs1)c1ccc2c(c1)OCCO2	0.203
CC(=O)N(CCN(C(C)=O)c1ccccc1)c1ccccc1	0.016
CCOC(=O)c1ccc(S(=O)(=O)N2CCNCC2)cc1	-0.353
S=c1[nH]nc(COc2ccccc2)n1/N=C/c1ccccn1	0.101
CC1CN(C2CC(C)(C)NC(C)(C)C2)CCC1=O (stereo not given)	active: 3.98
Cn1cc(CC(=O)Nc2cccc(C#N)c2)c2ccccc21	-0.00945
FC(F)(F)c1cccc(N2CCN(Cc3ccoc3)CC2)c1	0.548
CCS(=O)(=O)CCSc1nc2ccccc2o1	-0.627
Cc1ccc(/C=N/NC(=O)c2c[nH]c3ccccc23)s1	-0.00778
C=CCn1c(Oc2cc(C)ccc2C)nc2c1c(=O)n(C)c(=O)n2C	0.128
CC1(C)CC(=O)C2=C(C1)NC(SCC(N)=O)=C(C#N)C21CCCCC1	-0.349
O=C(COC(=O)c1ccccc1NC(=O)c1ccco1)Nc1ncc(Cl)cc1Cl	-0.0646
Cc1cc(C)c2c(n1)nn1c(C3CC3)cc(C(F)(F)F)nc21	0.0811
CN(C)C(=O)Cn1c(=O)n(C)c2ccccc21	0.277
NC(=O)NC(=O)CSc1nc(-c2ccccc2)c(-c2ccccc2)n1CC1CCCO1 (stereo not given)	-0.61
COc1ccc(/C=N/Nc2nnc(-c3ncc[nH]3)c3ccccc23)cc1	0.042
COc1cc(NC(=O)c2ccccc2)c(OC)cc1NC(C)=O	-0.2
O=[N+]([O-])c1cn(-c2nc(-c3ccco3)cc(C(F)(F)F)n2)cn1	0.47
O=C(N/N=C\c1ccc(COc2ccc([N+](=O)[O-])cc2)o1)c1ccc(Cl)cc1	-0.0513
Cc1cc(C)nc(NC2=NCCN2C(=O)NC2CCCCC2)n1	-1.03

SMILES	z-score
COc1ccc(-c2cc(C(F)(F)F)c(C#N)c(SCC(=O)Nc3ccccc3C#N)n2)cc1	-0.293
CC1CCCN(S(=O)(=O)c2ccc(C(=O)Nc3nnc(-c4ccccc4Cl)o3)cc2)C1 (stereo not given)	active: 3.98
CN1C(=O)CSc2ccc(NC(=O)N3CCOCC3)cc21	-0.0383
CCCCOc1ccc(C(=O)NCc2ccccn2)cc1	-0.356
O=C(NCC1CCCC(CNC(=O)N2CCc3ccccc32)C1)N1CCc2ccccc21 (stereo not given)	-0.365
Cc1cc(C(C)(C)C)ccc1OCCOCCN1CCCC1	0.381
CCCCc1nc(N)c(C#N)c(-c2ccco2)c1CCC	-0.0773
COc1cccc(NC(=O)CNC(=O)c2ccc(F)cc2)c1	0.944
CCC(=O)/C=C1\Sc2ccc(OC)cc2N1CCO	-0.195
CC(C)CNC(=O)c1ccccc1NC(=O)c1ccc(CN2CCOCC2)cc1	0.0794
O=C(NC1CCCCC1)C(c1ccc2ncccc2c1)N(Cc1cccs1)C(=O)c1cccs1 (stereo not given)	-2.26
O=C(OC1CCc2ccccc2C1=O)c1ccccc1O (stereo not given)	-0.834
Cc1ccc(CNC(=O)CSCC(=O)O)cc1	-0.261
CCCC(=O)Nc1cc(=O)n(C)c(=O)n1C	-0.309
CCOc1ncccc1C(=O)OCC(=O)Nc1cc(S(=O)(=O)N2CCOCC2)ccc1Cl	-0.296
COC(=O)c1sccc1NS(=O)(=O)c1ccc(OC)cc1	0.51
O=C1c2ccccc2C(Nc2ccc(S(=O)(=O)N3CCCCCC3)cc2)N1c1ccccn1 (stereo not given)	-0.262
COc1ccc(CSc2nnnn2C)cc1[N+](=O)[O-]	-0.18
COc1ccc(OCCOC(=O)c2cccs2)cc1	-0.126
Cc1ccc(C)c(NC(=O)CCC(=O)OC(C(=O)c2ccccc2)c2ccccc2)c1 (stereo not given)	0.138
CC(NC(N)=O)C(=O)OCc1ccc(Cl)cc1Cl (stereo not given)	-0.0911
CC(C)=C1C2CCC1C1C(=O)N(c3nc(-c4ccc(F)cc4)c(C)s3)C(=O)C21 (stereo not given)	-0.264
Cc1ccc(S(=O)(=O)N2CCOCC2)cc1C(=O)Nc1nc2ccccc2[nH]1	0.145
CCOc1cc(NS(=O)(=O)c2ccc(NC(C)=O)cc2)c(OCC)cc1NC(=O)C(C)C	-0.107
Cc1cc(C)n(CCc2nc(-c3ccco3)cs2)n1	0.234
O=C(COC(=O)c1cc2ccccc2cc1O)Nc1cccnc1Cl	-0.0274
NC(=O)C1(N2CCCCC2)CCN(C2CC(=O)N(Cc3cccs3)C2=O)CC1 (stereo not given)	-0.301
